Experimental data reported in the supplement of paper PMC4967469.
The IC50 comes from the fitted curve, where viability falls to half of the control; fits outside the tested doses are given as limits. AUC, from the same fit, is the share of area under the viability curve across the 256-fold dose range; the more sensitive the line, the further below 1. Any top dose called inferred is not printed in the source and was worked back from the curve model. For some of these results: Where an entry number is given, a second screen of the drug exists; the two often differ.

Assays:
[1] = compound: NC(=O)c1ncn([C@@H]2O[C@H](CO)[C@@H](O)[C@H]2O)c1N [AICAR]; test: Viability of human cancer cell lines after 72 h of drug (GDSC screen); details: top dose 2000 µM; top dose inferred
Procedure: (§1)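 Human cancer cell lines in 384-well plates, medium with 10% serum, drug for 72 h over a 256-fold dose range (nine 2-fold or five 4-fold steps up to the top dose). Adherent lines were fixed and stained with the nucleic acid dye Syto60, suspension lines read with resazurin; signal relative to control wells, capped at 0 and 100%. One two-parameter sigmoid per drug and line, fitted in a mixed model over all curves with the slope shared within a line.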

[2] = compound: O=c1[nH]c2ccccc2n1C1CCN(Cc2ccc(-c3[nH]c4cc5ncnc5cc4nc3-c3ccccc3)cc2)CC1 [AKT inhibitor VIII]; test: as above; details: top dose inferred
Procedure: as §1

[3] = top dose 2.56 µM, screen: GDSC drug entry 171
[4] = top dose 10.24 µM, screen: GDSC drug entry 228

Cell Line | AUC [1] | IC50 [1] [µM] | AUC [2, 3] | IC50 [2, 3] [µM] | AUC [2, 4] | IC50 [2, 4] [µM]
NCI-H1648 (lung adenocarcinoma, adherent) | 0.852 | 1690 | 0.894 | > 2.56 | 0.826 | 6.73
NCI-H1651 (lung adenocarcinoma, adherent) | 0.949 | > 2000 | 0.936 | > 2.56 | 0.987 | > 10.2
NCI-H1666 (lung adenocarcinoma, semi-adherent) | 0.872 | > 2000 | 0.987 | > 2.56 | 0.956 | > 10.2
NCI-H1688 (small cell lung carcinoma, adherent) | 0.917 | > 2000 | 0.943 | > 2.56 | 0.843 | 8.41
NCI-H1693 (lung adenocarcinoma, adherent) | 0.855 | > 2000 | 0.947 | > 2.56 | 0.967 | > 10.2
NCI-H1694 (small cell lung carcinoma, suspension) | 0.917 | > 2000 | 0.989 | > 2.56 | 0.864 | 8.85
NCI-H1703 (lung adenocarcinoma, adherent) | 0.915 | > 2000 | 0.926 | > 2.56 | 0.828 | 8.25
NCI-H1734 (lung adenocarcinoma, adherent) | 0.882 | > 2000 | 0.925 | > 2.56 | 0.904 | > 10.2
NCI-H1755 (lung adenocarcinoma, adherent) | 0.883 | > 2000 | 0.746 | 0.927 | 0.535 | 0.808
NCI-H1781 (lung adenocarcinoma, adherent) | 0.954 | > 2000 | 0.96 | > 2.56 | 0.831 | 6.49
NCI-H1792 (lung adenocarcinoma, adherent) | 0.857 | 1370 | 0.968 | > 2.56 | 0.805 | 4.57
NCI-H1836 (small cell lung carcinoma, suspension) | 0.927 | > 2000 | 0.981 | > 2.56 | 0.957 | > 10.2
NCI-H1838 (lung adenocarcinoma, adherent) | 0.96 | > 2000 | 0.983 | > 2.56 | 0.924 | > 10.2
NCI-H1869 (lung squamous cell carcinoma, adherent) | 0.779 | 929 | 0.985 | > 2.56 | 0.821 | 6.94
NCI-H1876 (small cell lung carcinoma, adherent) | 0.924 | > 2000 | 0.987 | > 2.56 | 0.935 | > 10.2
NCI-H1944 (lung adenocarcinoma, adherent) | 0.967 | > 2000 | 0.935 | > 2.56 | 0.635 | 1.55
NCI-H1963 (small cell lung carcinoma, suspension) | 0.986 | > 2000 | 0.986 | > 2.56 |  | 
NCI-H1975 (lung adenocarcinoma, adherent) | 0.761 | 808 | 0.869 | > 2.56 | 0.867 | > 10.2
NCI-H1993 (lung adenocarcinoma, adherent) | 0.98 | > 2000 | 0.942 | > 2.56 | 0.66 | 2.06
NCI-H2009 (lung adenocarcinoma, adherent) | 0.782 | 888 | 0.891 | > 2.56 | 0.987 | > 10.2
NCI-H2023 (lung adenocarcinoma, adherent) | 0.789 | 1130 | 0.977 | > 2.56 | 0.848 | > 10.2
NCI-H2029 (small cell lung carcinoma, adherent) | 0.989 | > 2000 | 0.992 | > 2.56 | 0.962 | > 10.2
NCI-H2052 (mesothelioma, adherent) | 0.849 | > 2000 | 0.979 | > 2.56 | 0.939 | > 10.2
NCI-H2081 (small cell lung carcinoma, suspension) | 0.796 | 1000 | 0.985 | > 2.56 | 0.87 | > 10.2
NCI-H2087 (lung adenocarcinoma, semi-adherent) | 0.915 | > 2000 | 0.968 | > 2.56 | 0.829 | 7.04

Cell Line | AUC [1] | IC50 [1] [µM] | AUC [2, 3] | IC50 [2, 3] [µM] | AUC [2, 4] | IC50 [2, 4] [µM]
NCI-H2110 (non-small cell lung carcinoma, adherent) | 0.985 | > 2000 | 0.795 | 1.22 | 0.901 | > 10.2
NCI-H2122 (lung adenocarcinoma, adherent) | 0.731 | 541 | 0.943 | > 2.56 | 0.927 | > 10.2
NCI-H2135 (non-small cell lung carcinoma, adherent) | 0.99 | > 2000 | 0.987 | > 2.56 | 0.943 | > 10.2
NCI-H2141 (small cell lung carcinoma, suspension) | 0.946 | > 2000 | 0.989 | > 2.56 | 0.853 | 7.68
NCI-H2172 (non-small cell lung carcinoma, adherent) | 0.922 | > 2000 | 0.925 | > 2.56 | 0.872 | > 10.2
NCI-H2227 (small cell lung carcinoma, semi-adherent) | 0.908 | > 2000 | 0.986 | > 2.56 | 0.881 | > 10.2
NCI-H2342 (lung adenocarcinoma, adherent) | 0.899 | > 2000 | 0.729 | 0.773 | 0.971 | > 10.2
NCI-H2347 (lung adenocarcinoma, adherent) | 0.911 | > 2000 | 0.927 | > 2.56 | 0.821 | 7.62
NCI-H2405 (lung adenocarcinoma, adherent) | 0.967 | > 2000 | 0.94 | > 2.56 | 0.937 | > 10.2
NCI-H2444 (non-small cell lung carcinoma, adherent) | 0.924 | > 2000 | 0.976 | > 2.56 | 0.961 | > 10.2
NCI-H2452 (mesothelioma, adherent) | 0.901 | > 2000 | 0.944 | > 2.56 | 0.984 | > 10.2
NCI-H3122 (lung adenocarcinoma, adherent) | 0.922 | > 2000 | 0.702 | 0.603 | 0.9 | > 10.2
NCI-SNU-1 (stomach, suspension) | 0.893 | > 2000 | 0.966 | > 2.56 | 0.776 | 4.24
NCI-SNU-16 (stomach, suspension) | 0.871 | 1520 | 0.991 | > 2.56 | 0.962 | > 10.2
NEC8 (testis, adherent) | 0.984 | > 2000 | 0.991 | > 2.56 | 0.967 | > 10.2
NH-12 (neuroblastoma, adherent) | 0.935 | > 2000 |  |  | 0.818 | 6.72
NKM-1 (acute myeloid leukaemia, suspension) | 0.55 | 172 | 0.884 | > 2.56 | 0.464 | 0.508
NMC-G1 (glioma, adherent) | 0.924 | > 2000 | 0.954 | > 2.56 | 0.86 | > 10.2
NOS-1 (osteosarcoma, adherent) | 0.7 | 525 | 0.775 | 1.25 | 0.537 | 0.829
NTERA-2 cl.D1 (testis, adherent) | 0.958 | > 2000 | 0.972 | > 2.56 | 0.958 | > 10.2
NU-DUL-1 (B-cell lymphoma, suspension) | 0.608 | 232 | 0.955 | > 2.56 | 0.564 | 0.921
NUGC-4 (stomach, adherent) | 0.899 | > 2000 | 0.976 | > 2.56 | 0.97 | > 10.2
NY (osteosarcoma, adherent) | 0.826 | 1190 | 0.947 | > 2.56 | 0.954 | > 10.2
OACM5-1 (oesophagus, semi-adherent) | 0.894 | > 2000 |  |  | 0.591 | 1.17
OACp4C (oesophagus, adherent) | 0.933 | > 2000 |  |  | 0.614 | 1.41

Cell Line | AUC [1] | IC50 [1] [µM] | AUC [2, 3] | IC50 [2, 3] [µM] | AUC [2, 4] | IC50 [2, 4] [µM]
OAW-42 (ovary, adherent) | 0.967 | > 2000 | 0.918 | > 2.56 | 0.811 | 5.99
OC-314 (ovary, adherent) | 0.963 | > 2000 |  |  | 0.944 | > 10.2
OCI-AML2 (acute myeloid leukaemia, suspension) | 0.674 | 332 | 0.982 | > 2.56 | 0.899 | 7.1
OCI-AML5 (acute myeloid leukaemia, suspension) | 0.532 | 152 | 0.924 | > 2.56 | 0.528 | 0.758
OCI-LY-19 (B-cell lymphoma, suspension) | 0.727 | 519 | 0.946 | > 2.56 | 0.714 | 2.44
OCI-M1 (acute myeloid leukaemia, suspension) | 0.958 | > 2000 | 0.995 | > 2.56 | 0.543 | 0.815
OCUB-M (breast, adherent) | 0.884 | 1650 | 0.844 | 1.48 | 0.428 | 0.418
OCUM-1 (stomach, adherent) | 0.953 | > 2000 | 0.976 | > 2.56 | 0.987 | > 10.2
OE19 (oesophagus, adherent) | 0.897 | > 2000 | 0.921 | > 2.56 | 0.971 | > 10.2
OE21 (oesophagus, adherent) | 0.686 | 510 | 0.893 | > 2.56 | 0.954 | > 10.2
OE33 (oesophagus, adherent) | 0.822 | 1480 | 0.799 | 1.51 | 0.916 | > 10.2
OMC-1 (cervix, adherent) | 0.921 | > 2000 | 0.903 | > 2.56 | 0.884 | > 10.2
ONS-76 (medulloblastoma, adherent) | 0.97 | > 2000 | 0.968 | > 2.56 | 0.931 | > 10.2
OPM-2 (myeloma, suspension) | 0.947 | > 2000 | 0.983 | > 2.56 | 0.666 | 1.68
OS-RC-2 (kidney, adherent) | 0.849 | > 2000 | 0.887 | > 2.56 | 0.862 | > 10.2
OSC-20 (head and neck, adherent) | 0.799 | 1180 | 0.925 | > 2.56 | 0.939 | > 10.2
OV-7 (ovary, adherent) | 0.934 | > 2000 |  |  | 0.899 | > 10.2
OV-17R (ovary, adherent) | 0.981 | > 2000 |  |  | 0.888 | > 10.2
OV-56 (ovary, adherent) | 0.918 | > 2000 |  |  | 0.888 | > 10.2
OV-90 (ovary, adherent) | 0.965 | > 2000 | 0.936 | > 2.56 | 0.643 | 1.79
OVCA420 (ovary, adherent) | 0.98 | > 2000 |  |  | 0.973 | > 10.2
OVCA433 (ovary, adherent) | 0.907 | > 2000 |  |  | 0.918 | > 10.2
OVCAR-4 (ovary, adherent) | 0.763 | 1080 | 0.93 | > 2.56 | 0.852 | > 10.2
OVCAR-5 (ovary, adherent) | 0.929 | > 2000 | 0.966 | > 2.56 | 0.96 | > 10.2
